PubChem BioAssay AID488969 (Vanderbilt High Throughput Screening Facility, 2010)
Whole data set: some 110,000 compounds, median “z-score” near -0.1, cut for the highest 2% near 2. The list shows a part of the results.

target: Metabotropic glutamate receptor 8 (Rattus norvegicus) (UniProt P70579); test: mGluR8 Gi/Go-coupled signaling modulation – cell-based, rat, thallium flux, HTS, primary screen (AID 488969); details: HEK293 rat mGluR8, GIRK (G protein-gated inwardly rectifying potassium channel) thallium flux, FluoZin2; at 10 µM; stronger effect = higher value; submaximal glutamate (EC20) added with thallium
UniProt P70579, sequence (P70579 whole entry, looked up): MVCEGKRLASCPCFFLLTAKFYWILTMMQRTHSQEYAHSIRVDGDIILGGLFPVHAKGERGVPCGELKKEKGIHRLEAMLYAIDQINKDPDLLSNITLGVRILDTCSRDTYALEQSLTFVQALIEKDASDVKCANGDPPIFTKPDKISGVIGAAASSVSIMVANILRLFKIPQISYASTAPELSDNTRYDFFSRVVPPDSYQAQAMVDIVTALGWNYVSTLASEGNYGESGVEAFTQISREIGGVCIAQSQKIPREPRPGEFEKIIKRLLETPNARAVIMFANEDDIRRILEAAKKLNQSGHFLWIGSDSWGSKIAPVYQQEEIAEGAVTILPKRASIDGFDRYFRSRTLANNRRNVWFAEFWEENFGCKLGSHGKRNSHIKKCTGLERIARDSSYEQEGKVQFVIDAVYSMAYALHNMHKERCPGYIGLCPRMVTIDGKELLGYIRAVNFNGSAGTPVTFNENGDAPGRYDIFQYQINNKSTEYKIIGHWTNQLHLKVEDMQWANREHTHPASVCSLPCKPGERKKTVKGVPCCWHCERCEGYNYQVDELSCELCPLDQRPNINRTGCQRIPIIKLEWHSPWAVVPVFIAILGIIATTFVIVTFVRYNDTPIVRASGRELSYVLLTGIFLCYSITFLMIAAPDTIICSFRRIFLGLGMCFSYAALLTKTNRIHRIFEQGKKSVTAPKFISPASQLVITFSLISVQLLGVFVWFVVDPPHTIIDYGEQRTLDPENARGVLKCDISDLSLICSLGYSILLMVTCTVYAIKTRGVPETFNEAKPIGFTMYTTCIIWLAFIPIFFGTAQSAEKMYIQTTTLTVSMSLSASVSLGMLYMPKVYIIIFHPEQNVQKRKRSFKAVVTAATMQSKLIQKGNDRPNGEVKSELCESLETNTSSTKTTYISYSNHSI

Q: `O=C(CCS(=O)(=O)c1cccc2nsnc12)N1CCN(c2ccccc2F)CC1` was tested. Which z-score did it give?
A: 0.0952

Q: Which z-score does the source give for `Cc1ccc(C2NC(=S)NC3=C2N2CCC3CC2)cc1` (stereo unspecified) here?
A: -0.905

Q: With `Cc1ccc(/C=N/NC(=O)c2ccoc2C)o1` as the compound, how does the z-score read?
A: -2.59

Q: For `O=C(Nc1ccc2c(c1)CCC2)c1cnn2c1NC(c1ccco1)CC2C(F)(F)F` (stereo unspecified), which z-score is on record?
A: -0.0955

Q: Which z-score does the source give for `CCc1cc2c(SCC(=O)c3cccs3)ncnc2s1` here?
A: 0.0546

Q: How did the z-score turn out when `CCOC(=O)c1sc(=S)n(-c2cc(F)ccc2F)c1N` was run?
A: 0.378

Q: Which z-score does the source give for `CCOc1ccc(NC(=O)N2CCC(n3nnc4cc(C)ccc43)CC2)cc1` here?
A: -0.0596

Q: For `CN1CC(=O)N(CC(=O)NCc2ccc3c(c2)OCO3)C1=O`, which z-score is on record?
A: -0.14

Q: With `Cc1ccc(S(=O)(=O)Cn2nnnc2C(C(C)C)N2CCN(C(=O)c3ccco3)CC2)cc1` (stereo unspecified) as the compound, how does the z-score read?
A: -0.299

Q: With `Cn1ncc(Cl)c1C(=O)N1CCc2ccccc21` as the compound, how does the z-score read?
A: -0.142

Q: For `C=CCOc1ccc(/C(O)=C2/C(=O)C(=O)N(CCCN3CCOCC3)C2c2ccccc2)cc1` (stereo unspecified), which z-score is on record?
A: 0.258

Q: How did the z-score turn out when `C=CCn1c(Cc2ccc(OC)cc2)nnc1SCc1nc2ccccc2c(=O)[nH]1` was run?
A: -0.334

Q: With `CCOc1ccc(-c2nn(-c3ccccc3)cc2/C=C(\C#N)S(=O)(=O)c2ccccc2)cc1C` as the compound, how does the z-score read?
A: 0.265

Q: Which z-score does the source give for `N=c1c(S(=O)(=O)c2ccccc2)cc2c(=O)n3ccccc3nc2n1CC1CCCO1` (stereo unspecified) here?
A: -0.579

Q: Which z-score does the source give for `O=S(=O)(NCCOc1cccc2cccnc12)c1ccc(F)cc1` here?
A: -0.153

Q: Which z-score does the source give for `COc1cc([N+](=O)[O-])ccc1NC(=O)Nc1nc2c(s1)CCCC2` here?
A: -0.0831

Q: For `CCn1c(CNC(=O)Cc2ccc(OC)cc2)nnc1SCC(=O)Nc1nccs1`, which z-score is on record?
A: -0.181

Q: Which z-score does the source give for `CC(=O)N1CCN(C(=O)c2cccc(S(=O)(=O)Nc3ccc(C)cc3)c2)CC1` here?
A: -0.477

Q: Which z-score does the source give for `CCOC(=O)c1nn(-c2ccccc2)c2nc(Nc3ccccc3)cc(=O)n12` here?
A: -0.146

Q: Which z-score does the source give for `Cc1ccc(Oc2ccc(OCC(=O)OC3CCS(=O)(=O)C3)cc2)cc1` (stereo unspecified) here?
A: 0.257

Q: `Cc1oc2ccccc2c1-c1cn2c(n1)SCC2` was tested. Which z-score did it give?
A: -0.0376

Q: For `Cc1cc(NCc2ccccc2)nc2ccccc12`, which z-score is on record?
A: 1.3

Q: For `Cc1ccc(-c2noc(-c3cc4ccccc4oc3=O)n2)cc1`, which z-score is on record?
A: -0.185

Q: With `Cc1cc(NC(=O)CSc2nc3c(sc4ccccc43)c(=O)n2CCc2ccccc2)n[nH]1` as the compound, how does the z-score read?
A: 0.145

Q: For `CC(C)OP(=O)(OC(C)C)C1(O)C(=O)Nc2ccccc21` (stereo unspecified), which z-score is on record?
A: -0.0437

Q: `CN(C)CCNc1oc(-c2ccccc2F)nc1C#N` was tested. Which z-score did it give?
A: -0.282

Q: With `COc1cc(/C=N/NC(=O)c2ccc(F)cc2)ccc1OC(=O)c1ccco1` as the compound, how does the z-score read?
A: 0.177

Q: Which z-score does the source give for `C/C(CC(=O)Nc1ccc(N(C)C)cc1)=N\NC(=O)Cc1csc(N)n1` here?
A: -0.244

Q: How did the z-score turn out when `Cc1c(NC(=O)c2ccc3c(c2)C(=O)N(CC2CCCO2)C3=O)cccc1C(=O)O` (stereo unspecified) was run?
A: -0.0528

Q: For `COc1ccc(N(CCC#N)S(=O)(=O)c2ccc(Cl)cc2)cc1`, which z-score is on record?
A: -0.234

Q: Which z-score does the source give for `Fc1ccc(N=C2NN=C(c3cc(F)ccc3F)CS2)cc1` here?
A: 0.593

Q: `O=C(N/N=C/c1ccccc1Cl)c1n[nH]c2c1CCCC2` was tested. Which z-score did it give?
A: -0.191

Q: `CCOC(=O)C1=C(N)c2ccccc2CC1C(C)C` (stereo unspecified) was tested. Which z-score did it give?
A: -0.175

Q: How did the z-score turn out when `CC1=C(C(=O)N2CCOCC2)C(c2cccc3ccccc23)NC(=S)N1` (stereo unspecified) was run?
A: -0.194

Q: Which z-score does the source give for `CC1=C(C)CC(C(=O)NNC(=O)c2ccccc2)C(C(=O)O)C1` (stereo unspecified) here?
A: -0.0266

Q: How did the z-score turn out when `C=C(C)Cn1c(SCC(=O)NCc2ccco2)nc2sc3c(c2c1=O)CCC3` was run?
A: -0.558

Q: With `CSc1nnc(Cn2c(=O)sc3ccccc32)n1CCc1ccccc1` as the compound, how does the z-score read?
A: -0.0459

Q: With `Cc1ccc(CNc2nc3ccccc3s2)s1` as the compound, how does the z-score read?
A: -0.103

Q: How did the z-score turn out when `CCCCCCCCC/C(=N\O)c1ccccn1` was run?
A: -0.0604

Q: How did the z-score turn out when `O=C(O)COc1cccc2nsnc12` was run?
A: 0.173

Q: How did the z-score turn out when `CSc1ccc(Cl)c(C(=O)NCC(C)C)c1` was run?
A: -0.0039

Q: With `COc1ccccc1OCCCCN1CCN(c2ccccc2OC)CC1` as the compound, how does the z-score read?
A: 0.115

Q: `Cc1ccc(-n2c(SCC(=O)OC(C)C)nnc2-c2ccncc2)cc1` was tested. Which z-score did it give?
A: 0.194

Q: Which z-score does the source give for `O=C(N/N=C\c1ccc(-c2ccc(Cl)c(Cl)c2)o1)C(=O)N1CCCC1` here?
A: -0.201

Q: How did the z-score turn out when `CCCOc1ccc(C2c3c(oc4ccccc4c3=O)C(=O)N2CCCN2CCOCC2)cc1` (stereo unspecified) was run?
A: 0.214

Q: How did the z-score turn out when `COc1ccc(CNC(=O)COC(=O)CCC2CCCCC2)cc1` was run?
A: -0.328

Q: With `Cc1ccc(SCC(=O)NCc2ccco2)cc1` as the compound, how does the z-score read?
A: 0.0101

Q: How did the z-score turn out when `O=C(c1cccnc1Nc1ccc2c(c1)CCC2)N1CCOCC1` was run?
A: -0.224

Q: How did the z-score turn out when `Cc1noc(C)c1COC(=O)C1CC(O)CN1S(=O)(=O)c1ccc(Cl)cc1` (stereo unspecified) was run?
A: 0.202

Q: With `CS(=O)(=O)N1CCN(c2ccc(Cl)cc2[N+](=O)[O-])CC1` as the compound, how does the z-score read?
A: -0.298

Q: With `CCCOCn1cc(F)c(=O)[nH]c1=O` as the compound, how does the z-score read?
A: -0.151

Q: Which z-score does the source give for `CN(C)C=NC(=O)c1ccc(N2CCN(c3ncc(C(F)(F)F)cc3Cl)CC2)cc1` here?
A: -0.0254

Q: How did the z-score turn out when `Cc1ccc(-c2csc3ncnc(-n4nnc5ccccc54)c23)cc1C` was run?
A: -0.0158

Q: Which z-score does the source give for `COc1ccc(CCC(C(O)C(F)(F)F)S(=O)c2ccccc2)cc1` (stereo unspecified) here?
A: 0.411

Q: `COc1ccc2c(c1)CCc1sc(NC(=O)c3ccc(C)cc3)nc1-2` was tested. Which z-score did it give?
A: -0.118

Q: For `COc1ccc(C2=C(Nc3ccc(C)cc3)c3ccccc3C2=O)cc1`, which z-score is on record?
A: 0.015

Q: `N#CCC(=O)N/N=C/c1ccc(OS(=O)(=O)c2ccccc2)cc1` was tested. Which z-score did it give?
A: -0.241

Q: With `C/C(CC(=O)NCCCN1CCOCC1)=N\NC(=O)COc1ccc(Cl)cc1` as the compound, how does the z-score read?
A: -0.229

Q: `COc1ccc(C(=O)Nc2ccc(-c3ccc(NC(=O)c4ccc(OC)cc4)c(OC)c3)cc2OC)cc1` was tested. Which z-score did it give?
A: -0.282

Q: With `CCOC(=O)N1CCc2c(sc(NC(C)=O)c2C(N)=O)C1` as the compound, how does the z-score read?
A: -0.232

Q: For `Nc1c(C(=O)Nc2nccs2)sc2nc(-c3cccs3)cc(C(F)(F)F)c12`, which z-score is on record?
A: -0.132

Q: `O=C(CC(C(=O)O)N1CCOCC1)Nc1ccc(Cl)cc1` (stereo unspecified) was tested. Which z-score did it give?
A: -0.04

Q: Which z-score does the source give for `S=c1[nH]nc(-c2ccccn2)n1/N=C/c1ccccc1` here?
A: -0.194

Q: How did the z-score turn out when `O=C(COC(=O)CCC1CCCC1)Nc1ccccc1Sc1ccccc1` was run?
A: -0.2

Q: `O=C(O)CC1S/C(=N/N=C/C=C/c2ccccc2[N+](=O)[O-])NC1=O` (stereo unspecified) was tested. Which z-score did it give?
A: 0.376

Q: Which z-score does the source give for `O=C(COc1ccc(F)cc1)N1c2ccccc2CCc2ccccc21` here?
A: -0.509

Q: `CN(C)S(=O)(=O)N1CCN(c2ccccc2Cl)CC1` was tested. Which z-score did it give?
A: -0.243

Q: Which z-score does the source give for `CNC(=O)C1CC(=O)N(Cc2ccc3c(c2)OCO3)C(=Nc2ccc(OC)cc2)S1` (stereo unspecified) here?
A: 0.941

Q: How did the z-score turn out when `Cc1cc(OCC(=O)O/N=C(\N)c2ccccc2)ccc1Cl` was run?
A: -0.153

Q: For `COc1cccc(C(=O)NC(=S)Nc2ccc([N+](=O)[O-])cc2C)c1`, which z-score is on record?
A: 1.79

Q: For `CCn1c(=O)cc(SCC(=O)NCCN2CCN(Cc3ccccc3)CC2)c2ccccc21`, which z-score is on record?
A: 1.03
